Assay results reported in PubChem BioAssay AID1259400 (National Center for Advancing Translational Sciences (NCATS), 2018).
Hit rate of the full screen: of about 350,000 compounds, about 2,100 (0.6%) were called active. This list was built around the results that the source calls inconclusive (neither active nor inactive); the mix of calls is not that of the screen.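 The calls were made as follows: active = activity change of -60% or lower, but not beyond a set lower limit; inconclusive = change between -60% and -40%, or beyond the set limit; inactive = change above -40%.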 More than one record can exist for a structure, and the calls need not agree.

These molecules were tested against Relaxin receptor 1 (Homo sapiens) (UniProt Q9HBX9) (assay: qHTS Assay for Antagonists of the Relaxin Receptor RXFP1). Details: HEK293-RXFP1, relaxin-stimulated cAMP HTRF, 30 min; at 57.5 µM; stronger effect = lower value.
Description: The relaxin hormone is involved in the variety of biological functions in normal tissues and diseases. The role of relaxin is well-established in female reproduction and parturition, mammary gland and endometrial development, maintenance of myometrial quiescence during pregnancy. Relaxin signaling through its G protein-coupled receptor (GPCR) RXFP1 results in ECM remodeling through regulation of collagen deposition, cell invasiveness, proliferation and overall tissue homeostasis. […] Recombinant human relaxin (rhRlx) is currently being tested in clinical trials as a protective agent in congestive heart failure, in treating severe preeclampsia, and as an anti-fibrotic agent in various organs. […] Upon relaxin binding RXFP1 activation leads to the activation of adenylate cyclase (AC) via G?s. cAMP will activate PKA, which phosphorylates many signaling proteins. Thus, detection of cAMP increase is an easy and reliable indication of relaxin receptor activation. To screen for antagonists of the relaxin receptor, a HEK293T cell line stably transfected with RXFP1 was used. RXFP1 activation by relaxin in presence of various concentrations of tested compounds was assayed by changes in cAMP levels as detected with a time-resolved fluorescence energy transfer (TR-FRET) cAMP detection kit.
For the primary screening, we used HTRF(R) (Homogenous Time-Resolved Fluorescence) cAMP HiRange assay (Cisbio Bioassays, 62AM6PEJ). Presence of cAMP in the cell lysate disrupts binding between the Cryptate-labeled anti-cAMP and d2-labeled cAMP pair, leading to a decrease in TR-FRET signal. The libraries were screened at two doses (57microM and 11microM), followed by a confirmation of the hits at 7-point serial dilution in the range of final concentrations [57microM - 78nM]. Data were normalized to the controls for basal activity (buffer only) and 100% activity (5 nM porcine relaxin). The EC50 values were determined from concentration-response data modeled with the standard Hill equation. NCGC Assay Protocol Summary: HiHEK (Hawaiian HEK293 LGR7 stably transfected with human RXFP1) were grown in the following media: DMEM+10%FBS+Pen/Strep + Geneticin (1mg/ml). For the assay, the cells were seeded in DMEM+Pen/Strep (with no serum & selective antibiotics) at 2,100 cells/ 3microl/well with MultiDrop Combi dispenser (Thermo Scientific, Logan, UT) onto white tissue culture treated solid bottom1536-well plates (Greiner #789173-F) and allowed to attach/recover overnight at 37 degrees C, 5% CO2. Next, 23nl/well of compound solutions in DMSO were transferred into wells with a pintool (Kalypsis, San Diego, CA). […] EC80 (relaxin at 50pM final concentration) was dispensed to the rest of the plate except columns 1&2 which were used as a negative control (EC0, buffer only), 1microl/well also. The cells were stimulated by relaxin in the presence of compounds for 30 minutes at 37 degrees C, 5% CO2. The detection reagents were prepared individually by dilution in Lysis buffer (supplied with the assay kit) just prior to dispensing. 1microl/well of cAMP-d2 and 1microl/well anti-cAMP-Eu3+-Cryptate antibodies were added simultaneously with BioRAPTR FRDtrade mark Workstation (Beckman Coulter). The plates were incubated at ambient temperature for 30 minutes and, then, FRET signal was read on Envision plate reader (PerkinElmer, Waltham, MA), at wavelengths 340nm (excitation), 615nm & 665nm (emission of donor and acceptor channels respectively).

UniProt Q9HBX9, sequence (Q9HBX9 whole entry, looked up): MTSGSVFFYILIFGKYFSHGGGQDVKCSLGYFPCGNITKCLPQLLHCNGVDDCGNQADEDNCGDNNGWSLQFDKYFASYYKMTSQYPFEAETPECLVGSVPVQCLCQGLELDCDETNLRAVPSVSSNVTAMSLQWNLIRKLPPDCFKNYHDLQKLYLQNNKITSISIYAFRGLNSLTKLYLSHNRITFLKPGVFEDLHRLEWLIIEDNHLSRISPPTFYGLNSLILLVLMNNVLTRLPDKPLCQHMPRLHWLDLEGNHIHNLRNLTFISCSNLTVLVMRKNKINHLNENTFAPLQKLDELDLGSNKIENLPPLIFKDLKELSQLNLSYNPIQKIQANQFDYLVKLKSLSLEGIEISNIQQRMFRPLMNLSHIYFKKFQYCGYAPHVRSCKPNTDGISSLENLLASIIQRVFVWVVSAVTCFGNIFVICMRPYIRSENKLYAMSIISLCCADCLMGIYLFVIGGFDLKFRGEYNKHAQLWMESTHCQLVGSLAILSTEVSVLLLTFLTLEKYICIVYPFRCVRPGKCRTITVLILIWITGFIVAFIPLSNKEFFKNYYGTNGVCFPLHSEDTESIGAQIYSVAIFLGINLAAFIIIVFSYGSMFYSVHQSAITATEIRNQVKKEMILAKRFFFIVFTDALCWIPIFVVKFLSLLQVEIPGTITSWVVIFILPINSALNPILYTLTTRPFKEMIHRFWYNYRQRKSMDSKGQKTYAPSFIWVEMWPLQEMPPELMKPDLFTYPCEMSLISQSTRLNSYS

| Compound | activity change, negative = inhibition |
| --- | --- |
| O=C(Nc1ccc(N2CCN(C(=O)c3ccco3)CC2)c(Cl)c1)c1cccnc1 | inconclusive: -48.2% |
| COc1ccc(CCN2CCC(Nc3nc4ccccc4n3Cc3ccc(F)cc3)CC2)cc1 | inconclusive: -41% |
| Cc1ccc(CSc2cn(CC(=O)N3CCCC3)c3ccccc23)cc1 | inconclusive: -55.3% |
| CC(C)C(=O)NC(c1ccc([N+](=O)[O-])cc1)c1c(O)ccc2ccccc12 (stereo not drawn) | inconclusive: -48.5% |
| COc1ccccc1N1CCN(c2ncnc3c2cnn3-c2cc(Cl)ccc2C)CC1 | inconclusive: -50.9% |
| COc1ccc(CN2CCN(CCSc3ccc(C)cc3)CC2)c(OC)c1OC | inactive: -3.35% |
| COC(=O)c1[nH]c2ccc(C)cc2c1NS(=O)(=O)c1ccc(F)cc1 | inactive: -5.36% |
| CCNc1nc(NC(C)C)nc(SCCOC(=O)c2ccccc2)n1 | inconclusive: -48.3% |
| Cc1c(Cl)cccc1NC(=O)c1cccc(NC(=O)N2CCSc3ncccc32)c1 | inactive: -12.1% |
| Oc1nc(Nc2ccc(F)cc2)sc1/C=C1\C=Nc2ccccc21 | active: -104% |
| COC(=O)c1cn(C(=O)c2ccccc2Cl)c2ccccc12 | inconclusive: -48.5% |
| FC(F)(F)c1ccc(NC(=S)NC2CCCCC2)cc1 | inconclusive: -48.7% |
| C#Cc1cccc(NC(=O)Cc2cccs2)c1 | inconclusive: -52.1% |
| Cc1ccccc1CC1(CO)CCCN(Cc2ccccc2Cl)C1 (stereo not drawn) | inconclusive: -43.2% |
| Cc1cccc(C)c1Nc1c(-c2ccccc2F)nc2cccc(C)n12 | active: -100% |
| N#Cc1c(F)cccc1NCc1cccs1 | inactive: 1.45% |
| Cc1ccc2[nH]c3c(=O)n(N)c(C)nc3c2c1 | inactive: 4.14% |
| COc1cc(NS(=O)(=O)c2ccc(NC(=S)NC(=O)/C=C/c3ccco3)cc2)ncn1 | inconclusive: -55.9% |
| COc1cccc(C(=O)NCc2ccc3c(c2)CCN3C(=O)c2ccncc2)c1 | inconclusive: -56.1% |
| Cc1cc(N2CCCCC2)nc2ccc(NC(=O)c3cccc(F)c3)cc12 | inconclusive: -57.4% |
| Cc1ccc(CNC(=O)c2ccc(CSCc3ccc(C)cc3)o2)cc1 | inconclusive: -55% |
| CNC(=O)c1nnsc1S(=O)c1ccc(Cl)cc1 (stereo not drawn) | inconclusive: -40.9% |

| Compound | activity change, negative = inhibition |
| --- | --- |
| CCN(c1ccc(OC)cc1)S(=O)(=O)c1nnc(NC(=O)c2ccccc2Cl)s1 | active: -60.5% |
| CC1(c2ccccc2)CC(C)(C)N2C(=O)Cc3cccc1c32 (stereo not drawn) | inconclusive: -42% |
| COCC(=O)N(C)[C@H]1C[C@H]2c3[nH]c4ccccc4c3CCN2C(=O)[C@H]1[C@H](C)O | inactive: 0.927% |
| C/C(=N\Nc1ccc(F)cc1F)c1ccc(N2CCOCC2)cc1 | inactive: 1.6% |
| C/C(=N\N=C1\NC(=O)C(CC(=O)Nc2ccc(Cl)cc2)S1)c1ccco1 (stereo not drawn) | inconclusive: -48.4% |
| CCOc1ccc(/C=N/NC(=O)c2cc3ccccc3cc2OC)cc1 | inactive: -0.0994% |
| CC1CC1C(=O)Nc1nc(-c2ccc(Cl)s2)cs1 (stereo not drawn) | inconclusive: -41.9% |
| CSC1=N/C(=C\c2ccc(Cl)cc2)C(=O)N1N(C)C | inconclusive: -46.5% |
| CCOC(=O)C(/C=N/c1cc(C)nn1-c1ccccc1)=C(\C)O | inactive: -7.12% |
| CC(=O)Nc1ccc(S(=O)(=O)NCC(=O)N2CCN(S(=O)(=O)c3cccs3)CC2)cc1 | inactive: 5.05% |
| COc1ccc2ccccc2c1/C=N/NC(=O)c1ccc([N+](=O)[O-])cc1 | inactive: -19.6% |
| CCOC(=O)C(CC)Sc1ccc2nnc(CCNS(=O)(=O)c3ccc(C)cc3)n2n1 (stereo not drawn) | inactive: -17.8% |
| O=C(COc1ccccc1Br)N1CCNC1=O | inconclusive: -55.5% |
| COCCn1c(SCC(=O)NCc2ccc3c(c2)OCO3)nnc1C(C)C | inactive: 6.04% |
| Cc1ccc(N2CCN(C(=O)Nc3cccc([N+](=O)[O-])c3)CC2C)cc1 (stereo not drawn) | inconclusive: -42.9% |
| O=C(Nc1ccnn1C1CCN(Cc2cccc(F)c2F)CC1)C1CCCC1 | inactive: 1.63% |
| O=C(COC(=O)c1nc(Cl)c(Cl)c(Cl)c1Cl)c1ccc[nH]1 | inconclusive: -42.5% |
| CCCCCCCCCCOC(=O)Cn1c(COc2ccccc2OC)[n+](C)c2ccccc21 | inconclusive: -56.3% |
| Cc1cc2n(n1)C(c1ccccc1)Nc1ccccc1-2 (stereo not drawn) | inactive: 4.55% |
| CCOc1cc(CNc2ccc(O)cc2)ccc1OCc1ccc(Cl)cc1 | inconclusive: -53.2% |
| Cc1ccc(/C=C/C(=O)Nc2nnc(SCc3ccc(C#N)cc3)s2)o1 | inconclusive: -53.2% |
| C=CCNC(=O)C1CCN(S(=O)(=O)c2ccc3ccccc3c2)CC1 | inactive: 3.93% |

| Compound | activity change, negative = inhibition |
| --- | --- |
| CCOC(=O)c1cc(-c2ccccc2)n(CC(=O)N(C)c2ccc(OC)cc2)c1C | active: -74.3% |
| Oc1ccc(/C=N/N(Cc2ccccc2)c2ccccc2)c(O)c1O | active: -92.4% |
| CC(C)(C)c1ccc(OCc2ccc(C(=O)N3CCOCC3)o2)cc1 | inconclusive: -55.9% |
| O=C(CSc1ccccc1)Nc1ccc2c(c1)OCO2 | inactive: -4.83% |
| CN(CC(=O)NCc1ccc(F)cc1)S(=O)(=O)c1ccc2c(c1)n(C)c(=O)c(=O)n2C | inactive: -6.49% |
| O=C(Cc1ccccc1)Nc1ccccc1N1CCN(c2ccccc2)CC1 | inactive: -25.3% |
| CC1=NN(c2nc(-c3ccc(Cl)cc3)cs2)C(=O)C1 | inconclusive: -53.4% |
| S=c1[nH]cnc2scc(-c3ccccc3)c12 | active: -72.9% |
| CN1CCCC(n2nc(Cc3ccc(Cl)cc3)c3ccccc3c2=O)CC1 (stereo not drawn) | inconclusive: -50.5% |
| Cc1ccc(C(CNS(=O)(=O)c2ccc(F)cc2C)N2CCN(C)CC2)cc1 (stereo not drawn) | inconclusive: -45.1% |
| O=C(Nc1ccccc1Cl)/C(Cl)=C(\Cl)S(=O)c1ccccc1 (stereo not drawn) | active: -106% |
| O=C(NCCc1c[nH]c2ccccc12)C(=O)c1c[nH]c2ccccc12 | inactive: -9.31% |
| CN(CC(=O)Nc1ccc(F)c(F)c1F)C(=O)CCc1nc2sc3c(c2c(=O)[nH]1)CCCC3 | active: -62.9% |
| CN(C)c1ccc2c(c1)C(=NO)c1ccccc1-2 | inconclusive: -43.1% |
| CCc1ccc(C2CC(c3ccccc3Cl)Nc3nc(N)nn32)cc1 (stereo not drawn) | inconclusive: -59.8% |
| CCc1ccc(/C=C/C(=O)c2cc(Br)ccc(=O)c2O)cc1 | inconclusive: -46.9% |
| CC(C)c1ccc(CNc2nc(-c3ccco3)nn2S(=O)(=O)c2ccc3ccccc3c2)cc1 | inactive: -5.95% |
| N=c1n(Cc2ccc(Cl)cc2)c2ccccc2n1CC(O)COc1ccccc1 (stereo not drawn) | inconclusive: -43.3% |
| CCc1cccc(CC)c1NC(=O)c1cc(S(=O)(=O)N2CCc3ccccc32)cn1C | inactive: -22.2% |
| c1ccc2c(N3CCCCCC3)nc(-c3ccncc3)nc2c1 | inconclusive: -52.8% |
| COc1ccc(-c2noc(-c3ccccc3C(=O)NCC3CCCO3)n2)cc1 (stereo not drawn) | inconclusive: -51.6% |
| CC(C)(c1ccccc1)c1ccc(OCC(O)CN2CCCC2)cc1 (stereo not drawn) | inconclusive: -49.5% |

| Compound | activity change, negative = inhibition |
| --- | --- |
| O=C(NC(=S)NNS(=O)(=O)c1ccccc1)c1ccccc1[N+](=O)[O-] | inconclusive: -45.5% |
| CCOC(=O)CC(NCc1ccc(OC)c(OCC)c1)c1ccc(C)cc1 (stereo not drawn) | inconclusive: -47.3% |
| Nc1c(C(=O)NC2CC2)sc2nc3c(c(-c4ccco4)c12)CC/C3=C/c1ccco1 | inconclusive: -50.8% |
| Cc1ccc(NC(=O)CN(C)C(=O)c2cc(-c3ccco3)nc3ccccc23)cc1 | inconclusive: -54% |
| COc1ccc(N2CCN(c3nc(-c4ccccc4F)nc4ccccc34)CC2)cc1 | inconclusive: -50.8% |
| O=C(CN1CCCc2ccccc21)N/N=C/c1c(O)ccc2ccccc12 | active: -60.7% |
| CCC(=O)NC(Cc1ccccc1)c1ccc2c(c1)OCCCO2 (stereo not drawn) | inactive: 3.58% |
| CCN(CC)CCOc1ccc(/C(=C(\Cl)c2ccccc2)c2ccccc2)cc1 | inconclusive: -46% |
| CCOC(=O)Cn1c(=O)cc(-c2ccccc2)c2c(C)nn(C)c21 | inconclusive: -45.9% |
| O=C(c1ccc2c(=O)n3c(nc2c1)CCCCC3)N1CCN(c2ccccc2)CC1 | inactive: -13.3% |
| O=C(Cc1ccc(F)cc1)Nc1nc(-c2ccc(F)cc2)cs1 | inconclusive: -48.9% |
| N#CCC(=O)NNC(=S)NC(=O)C(c1ccccc1)c1ccccc1 | inconclusive: -54.2% |
| O=C(NC12CC3CC(CC(C3)C1)C2)c1ccco1 | inconclusive: -53.7% |
| NS(=O)(=O)c1ccc(CNC(=O)c2cc(-c3cccnc3)nc3ccc(Br)cc23)cc1 | inactive: 13.1% |
| CCCn1c(=O)c2c(C(F)(F)F)cc(-c3ccco3)nc2n(CCC)c1=O | inactive: 0.538% |
| C#CCOc1c(Br)cc(C2C(C(=O)OC)=C(C)NC3=C2C(=O)c2ccccc23)cc1OCC (stereo not drawn) | inactive: -3.79% |
| Cc1ccc(C)c(N(CC(=O)NC2CCCC2)C(=O)c2oc(C(C)(C)C)cc2C)c1 | inconclusive: -42.7% |
| COc1cc(/C=C2\COC/C(=C\c3cc(OC)c(OC)c(OC)c3)C2=O)cc(OC)c1OC | active: -62.8% |
| O=[N+]([O-])c1ccc(NN=Cc2ccccc2O)nc1 | inconclusive: -55.4% |
| CC(C)(C)c1ccc(CNC(=O)c2ccc3c(c2)NC(=O)CO3)cc1 | inconclusive: -41.6% |
| COc1ccc(S(=O)(=O)N2CCN(C(=O)c3cc(-c4ccc(Br)cc4)n[nH]3)CC2)cc1OC | inconclusive: -40.6% |
| CCOC(=O)c1cc(-c2ccc(OC)cc2)n(CCC(=O)NC2CCC(C)CC2)c1C (stereo not drawn) | inconclusive: -59.1% |
